This passage reports cell count results from the supplement of paper PMC4604168 (melanoma cell lines).

Among the test systems are COLO792; COLO800; COLO829; G361; IPC-298; IST-MEL1; LB2518-MEL; LOXIMVI; MEL-HO; MZ2-MEL; MeWo; RPMI7951; RVH-421; SkMel28; SkMel2; SkMel30; SkMel5; UACC257; UACC62.
Experiment in all cases: cell count relative to DMSO control; melanoma cells; higher = more viable cells
What all share (conditions): library dose: low library concentration; 72 h

The other results are listed elsewhere or left out. Many values rest on one well or one pass, so single values are uncertain.
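Further: cell number obtained by counting DAPI-stained nuclei in high-throughput microscope images with image analysis software, screen run in 1,536-well plates.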

`CN(c1ncccc1CNc1nc(Nc2ccc3c(c2)CC(=O)N3)ncc1C(F)(F)F)S(C)(=O)=O` + O=S(=O)(c1ccccc1)N(CC(F)(F)F)c1ccc(C(O)(C(F)(F)F)C(F)(F)F)cc1 [T0901317] (first compound 0.08 µM, partner dose 1.4 µM): the cell count in the experiment on COLO792 stood at 81.3%; in the experiment on COLO800 it was 136%; in the experiment on COLO829 it was 62.2%; with G361, 78.9%; in the experiment on IPC-298 it was 88.9%; with IST-MEL1, 88.9%. The cell count in the experiment on LB2518-MEL was 85%; with LOXIMVI it was 75%; with MEL-HO, 101%; with MZ2-MEL it was 90.7%; with MeWo, 92.1%; with RPMI7951, 101%. For the same molecule, the cell count in the experiment with RVH-421 is 58.7%; with SkMel28, 79.8%; in the experiment with SkMel2 it was 81.5%; with SkMel30 it was 86.4%; in the experiment with SkMel5, 69.2%; with UACC257, 51.8%. Also, the cell count in the experiment on UACC62 is 71.9%.
For the molecule `CCCS(=O)(=O)Nc1ccc(F)c(C(=O)c2c[nH]c3ncc(Cl)cc23)c1F` + COc1cc(Nc2ncc(F)c(Nc3ccc4c(n3)NC(=O)C(C)(C)O4)n2)cc(OC)c1OC [Tamatinib] (first compound 0.08 µM, partner dose 0.4 µM), the cell count in the experiment with COLO792 was found to be 62.6%; in the experiment on COLO800, 81.7%; with COLO829, 97.1%; with G361, 77.7%; in the experiment with IPC-298 it was 76%; in the experiment on IST-MEL1 it was 95.3%. Also, the cell count stood at 81.5% in the experiment with LB2518-MEL; 70.6% in the experiment on LOXIMVI; 83.6% in the experiment on MEL-HO; 83.9% with MZ2-MEL; 88% in the experiment with MeWo; 84% in the experiment on RPMI7951. Moreover, the cell count in the experiment with RVH-421 came to 93.4%; with SkMel28 it was 82.9%; with SkMel2, 91.1%; with SkMel30 it was 73.9%; in the experiment on SkMel5 it was 97.3%; in the experiment with UACC257 it was 67.5%. Besides, the cell count with UACC62 worked out at 70.5%.
As for `NC1(c2ccc(-c3nc4ccn5c(=O)[nH]nc5c4cc3-c3ccccc3)cc2)CCC1` + COC(=O)c1sccc1S(=O)(=O)Nc1ccc(Nc2ccccc2)cc1OC [GSK0660] (first compound 0.4 µM, partner dose 1 µM), the cell count worked out at 76.9% with COLO792; 160% in the experiment on COLO800; 89% in the experiment with COLO829; 97.4% in the experiment on G361; 97.2% in the experiment on IPC-298; 96.6% in the experiment with IST-MEL1. Besides, the cell count with LB2518-MEL turned out to be 88.9%; with LOXIMVI, 103%; with MEL-HO it was 83.5%; with MZ2-MEL it was 100%; in the experiment on MeWo it was 88.1%; in the experiment with RPMI7951 it was 82.1%. Besides, the cell count stood at 94.4% in the experiment on RVH-421; 77% with SkMel28; 93.5% in the experiment with SkMel2; 93.6% in the experiment with SkMel30; 88.6% in the experiment with SkMel5; 85.2% in the experiment with UACC257. This molecule also registered a cell count in the experiment on UACC62 of 93.1%.
Turning to `CCCS(=O)(=O)Nc1ccc(F)c(C(=O)c2c[nH]c3ncc(Cl)cc23)c1F` + O=S(=O)(c1ccccc1)N(CC(F)(F)F)c1ccc(C(O)(C(F)(F)F)C(F)(F)F)cc1 [T0901317] (first compound 0.08 µM, partner dose 1.4 µM), the cell count worked out at 94% with COLO792; 90.4% in the experiment on COLO800; 110% in the experiment on COLO829; 74.6% in the experiment on G361; 81.9% in the experiment on IPC-298; 100% with IST-MEL1. In addition, the cell count was 114% with LB2518-MEL; 94.4% with LOXIMVI; 89.7% in the experiment on MEL-HO; 84.7% in the experiment with MZ2-MEL; 100% in the experiment with MeWo; 123% in the experiment with RPMI7951. For the same molecule, the cell count is 120% in the experiment on RVH-421; 76.8% with SkMel28; 102% in the experiment with SkMel2; 97.1% in the experiment with SkMel30; 89% in the experiment on SkMel5; 65.2% in the experiment on UACC257. Besides, the cell count with UACC62 stood at 54.1%.
For `CS(=O)(=O)c1ccc(C(=O)Nc2ccc(Cl)c(-c3ccccn3)c2)c(Cl)c1` [vismodegib] + Cn1cc(/C=C2\C(=O)Nc3cccnc32)c2ccccc21 [GW441756] (first compound 1 µM, partner dose 0.4 µM), the cell count in the experiment with COLO792 came to 88.2%; in the experiment with COLO800, 99.2%; in the experiment with COLO829 it was 105%; in the experiment on G361, 102%; with IPC-298, 105%; in the experiment with IST-MEL1, 110%. Besides, the cell count in the experiment with LB2518-MEL turned out to be 115%; with LOXIMVI, 70.6%; in the experiment with MEL-HO, 112%; with MZ2-MEL, 99.3%; in the experiment on MeWo, 84.7%; in the experiment with RPMI7951 it was 101%. The cell count in the experiment on RVH-421 was 131%; with SkMel28, 99.9%; in the experiment on SkMel2, 110%; in the experiment on SkMel30, 82.4%; in the experiment on SkMel5, 78.9%; with UACC257, 83.6%. For the same molecule, the cell count in the experiment with UACC62 turned out to be 101%.
Regarding `CS(=O)(=O)c1ccc(C(=O)Nc2ccc(Cl)c(-c3ccccn3)c2)c(Cl)c1` [vismodegib] + NC(=O)Nc1cc(-c2cccc(F)c2)sc1C(=O)N[C@H]1CCCNC1 [AZD7762] (first compound 1 µM, partner dose 0.02 µM), the cell count was 92.8% in the experiment with COLO792; 80.5% in the experiment with COLO800; 106% in the experiment with COLO829; 121% with G361; 109% in the experiment on IPC-298; 112% in the experiment with IST-MEL1. For the same molecule, the cell count with LB2518-MEL came to 138%; in the experiment on LOXIMVI, 65.7%; with MEL-HO it was 95.2%; with MZ2-MEL, 108%; in the experiment with MeWo, 86.7%; in the experiment with RPMI7951, 112%. For the same molecule, the cell count worked out at 125% in the experiment with RVH-421; 76.2% with SkMel28; 110% with SkMel2; 96.9% in the experiment on SkMel30; 102% with SkMel5; 138% in the experiment with UACC257. The cell count with UACC62 is 106%.
`CN(c1ncccc1CNc1nc(Nc2ccc3c(c2)CC(=O)N3)ncc1C(F)(F)F)S(C)(=O)=O` + O=C1NC(=O)/C(=C/c2ccc(-c3ccc(F)cc3O)o2)S1 [AS252424] (first compound 0.08 µM, partner dose 1 µM): the cell count with COLO792 was 73.2%; in the experiment on COLO800 it was 99.3%; in the experiment on COLO829, 58.2%; in the experiment with G361 it was 91.5%; in the experiment on IPC-298, 95.6%; in the experiment on IST-MEL1, 97.4%. Moreover, the cell count in the experiment on LB2518-MEL turned out to be 90%; with LOXIMVI it was 84.5%; with MEL-HO, 94.9%; in the experiment with MZ2-MEL it was 96.6%; in the experiment with MeWo it was 86%; in the experiment on RPMI7951, 62.4%. Further, the cell count with RVH-421 came to 89.9%; with SkMel28, 80.2%; in the experiment with SkMel2, 76.4%; in the experiment on SkMel30 it was 80.3%; in the experiment on SkMel5, 79.7%; with UACC257, 72.5%. In the experiment with UACC62, this molecule displayed a cell count of 88.9%.
